PubChem BioAssay AID686978 (National Center for Advancing Translational Sciences (NCATS), 2013)
Several values for one entry are separate records, joined by “and”; a condition that tells them apart may be missing. Equal values may be shown once. Out of some 420,000 compounds screened, about 64,000 (15%) were called active. The shares of active, inactive and inconclusive entries below differ from those in the screen. Calls follow the shape of the dose curve; as a rule, active = well fitted inhibition curve with a large enough effect; inconclusive = small, poorly fitted or top-dose-only effect; inactive = flat fitted curve, though single readings scatter. Potencies of inconclusive entries are left out as doubtful fits.

Experiment: qHTS for Inhibitors of human tyrosyl-DNA phosphodiesterase 1 (TDP1): qHTS in cells in absence of CPT; also: nearly all actives have a fitted effect of over 55% in size
Settings: DT40 Tdp1-/- hTDP1 cells, no CPT, ATP luminescence, 48 h; activity change, negative = growth inhibition: at 46.2 µM (top of the series) unless noted
How it was run: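 Readout: luminescence from CellTiter-Glo after 30 min in the dark at RT. Cells: DT40 Tdp1-/- with stable hTDP1, 400/well. Exposure: compounds alone, ≥48 hr, 37 °C.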
% is scaled to controls: 0 for no effect and ±100 for the full control effect; potency is read from the fitted curve at half-maximal effect; tags tell the direction and shape of the fitted curve.

SMILES	Potency	activity change, negative = growth inhibition
COc1ccc(-c2cc3c(c4c2ccn4C)C2CCC3C2)cn1 (centres undefined)	inconclusive [inhibitor, single point]	–
c1ccc(Cn2nnnc2C(c2cccs2)N2CCCCCC2)cc1 (centres undefined)	inactive	–
C#CCn1c(=NC(=O)CSCC(=O)N2CCOCC2)sc2ccccc21	–	inconclusive: -32.2% [inhibitor]
CC(=O)c1ccccc1S(=O)(=O)N1CCN(c2nc(-c3cccs3)nc3ccccc23)CC1	active: 7.08 µM	–
C#CCOCCOCCOCCNc1nc(N2CCN(C(=O)CCCCCCCCCCNC(=O)Cn3cc(CCCCCN)nn3)CC2)nc(N2CCN(C(=O)CCCCCCCCCCNC(=O)[C@H]([C@@H](C)CC)n3cc(CCCCCN)nn3)CC2)n1	inconclusive [inhibitor, single point]	–
COc1ccccc1-c1nn2c(-c3ccco3)nnc2s1	active: 18.4 µM	–
CCC(C(=O)OCC(=O)Nc1cc(C)ccc1OC)c1ccccc1 (centres undefined)	inconclusive [inhibitor, partial curve]	–
CCOC(=O)CN1C(=O)COc2ccc(C(C)(C)C)cc21	inconclusive [inhibitor, partial curve, poor fit]	–
Cc1nn(-c2ccccc2)c(NC(=O)c2ccccc2)c1Br	inconclusive [inhibitor, single point]	–
O=C(NCC1CCCO1)c1cccc2c1C(=O)c1ccc(N3CCC(Cc4ccccc4)CC3)cc1S2(=O)=O (centres undefined)	active: 20.6 µM	–
Cc1cc(C)c(Nc2nc3ccccc3n3c(C)nnc23)c(C)c1	active: 13 µM	–
CN(C)S(=O)(=O)c1cccc(NC(=O)COC(=O)c2cc3ccccc3oc2=O)c1	inactive	–
COc1cccc(-n2c(SCC(=O)N3c4ccccc4CC3C)nnc2-c2ccco2)c1 (centres undefined)	inconclusive [inhibitor, single point]	–
COc1ccccc1-n1nnnc1S(=O)(=O)Cc1ccc(Cl)cc1	active: 6.51 µM	–
CC1CCN(C(=S)c2cn(Cc3ccccc3F)c3ccccc23)CC1	inconclusive [inhibitor, single point]	–
Cc1ccc2c(c1)[C@H]1[C@H](CO2)[C@H](c2ccccc2)[C@]2(C)C(=O)Nc3ccc(Cl)cc3C(=O)N12	active: 14.6 µM	–
CCCCOc1cccc(C(=O)Nc2ccccc2N2CCCC2)c1	inconclusive [inhibitor, single point]	–
O=C(CCc1c[nH]c2ccccc12)NCCOc1ccccc1	inactive	–
CCN(C1CCCCC1)S(=O)(=O)CCNC(=O)c1ccc2c(c1)OCO2	inconclusive [inhibitor, single point]	–
COc1ccccc1OCCn1c(NC(=O)c2ccccc2Cl)nc2ccccc21	active: 16.4 µM	–
O=C(NC1CCCC1)C(c1ccccc1)N(Cc1ccccc1)C(=O)c1csnn1 (centres undefined)	inactive	–
COc1ccc(CN(C)C(=O)c2ccc(Oc3ccccc3)cc2)cc1F	inconclusive [inhibitor, partial curve]	–
COC(=O)c1c(NC(=O)COC(=O)CCc2ccc(S(=O)(=O)N3CCOCC3)cc2)sc2c1CCC2	inactive	–
O=c1cc(-c2ccccc2)[nH]n1-c1nc2ccccc2[nH]1	inconclusive [inhibitor, single point]	–
CC(C)C(NC(=O)/C(=C/c1ccco1)NC(=O)c1ccc(Br)o1)C(=O)O (centres undefined)	inactive	–

SMILES	Potency	activity change, negative = growth inhibition
CC(OC(=O)c1ccccc1Oc1ccccc1)C(=O)NC1CC1 (centres undefined)	inconclusive [inhibitor, single point]	–
O=C1Nc2ccc3c(c2C1=Cc1cc2c(cc1Br)OCO2)OCO3	active: 4.61 µM	–
N#Cc1ccc(C(=O)N2CCCCC2c2cc(C(=O)Nc3ccccc3Cl)no2)cc1 (centres undefined)	inconclusive [inhibitor, partial curve]	–
Cc1ccc(NC(=O)CSc2nnc3scc(-c4ccc(Cl)cc4)n23)cc1	inactive	–
Cc1[nH]n2c(=O)c3c(nc2c1-c1ccccc1)CCCC3	inconclusive [inhibitor, single point]	–
Cc1cccc(-n2c(SCC(=O)N3CCN(c4ccccn4)CC3)nnc2N2CCOCC2)c1	inactive	–
CCOc1ccc(-c2cc(C(=O)N3CCN(c4cc(Cl)ccc4C)CC3)c3ccccc3n2)cc1	inactive	–
Cc1ccc(-n2cnc(=O)c3cccnc32)cc1	inactive	–
CCN1CCN(c2cc(C)c3cc(NC(=O)c4cccs4)ccc3n2)CC1	inconclusive [inhibitor, single point]	–
CCOC(=O)C1=C(CN2CCN(c3ccc(OC)cc3)CC2)NC(=O)NC1c1ccc(OC)cc1 (centres undefined)	inconclusive [inhibitor, single point]	–
Cc1ccc(Nc2nc3nonc3nc2Nc2cccc(C(F)(F)F)c2)cc1Cl	active: 0.461 µM	–
CCCSc1nc(N)c2c3c(sc2n1)CN(C)CC3	active: 23.1 µM	–
Cc1noc(C)c1COC(=O)CCCc1c[nH]c2ccccc12	inactive	–
CCn1c(SCC(=O)c2[nH]c(C)c(C(C)=O)c2C)nnc1-c1cccs1	active: 18.4 µM	–
COc1ccc(C2NC(=S)NC3=C2CCCC3=C2SCCS2)cc1 (centres undefined)	active: 2.91 µM	–
CCN(CC)CCCNc1oc(/C=C/c2ccc(OC)c(OC)c2)nc1C#N	inconclusive [inhibitor, single point]	–
O=S(=O)(c1ccc(F)c(F)c1F)N1CCN(C(=S)NC2CC3CCC2C3)CC1 (centres undefined)	inactive	–
CCOc1ccc2nc(SCC(=O)NCC3CCCO3)c(C#N)cc2c1 (centres undefined)	inconclusive [inhibitor, single point]	–
COc1ccc(C(=O)c2c[nH]c(C(=O)NCc3ccco3)c2)cc1	inconclusive [inhibitor, partial curve]	–
Cc1cc(Cl)ccc1OCCCC(=O)Nc1cc(S(=O)(=O)N2CCOCC2)ccc1N1CCOCC1	active: 16.4 µM	–
COC(=O)CSc1nc2ccc(C)cc2[nH]1	inactive	–
Cc1ccc(Cl)cc1NC(=S)NN	inconclusive [inhibitor, single point]	–
O=S(=O)(NCC(c1ccco1)N1CCc2ccccc2C1)c1ccc(F)cc1 (centres undefined)	inconclusive [inhibitor, single point]	–
COc1cc2[nH]cc(C(=O)NCCc3ccccc3)c(=O)c2cc1OC	inconclusive [inhibitor, single point]	–
Cc1cc(Cl)ccc1OCC(=O)NC1CCCC1	active: 12.6 µM	–

SMILES	Potency	activity change, negative = growth inhibition
COCCCNc1c2c3c(cccc3[nH]c1=O)C(=O)c1ccccc1-2	active: 16.4 µM	–
COC(=O)c1cc(CNC(=O)c2ccccn2)cc(NC(=O)c2ccccc2OC)c1	inconclusive [inhibitor, partial curve]	–
Cc1ccc(S(=O)(=O)Nc2c(C)nn(C)c2C)c(C)c1	inconclusive [inhibitor, partial curve]	–
Cc1n[nH]c(C)c1S(=O)(=O)N(CC(=O)Nc1ccc2c(c1)OCCO2)c1ccc(C(C)C)cc1	inconclusive [inhibitor, single point]	–
CN1CCN(NC(=O)c2cc(-c3ccc(Cl)s3)nc3ccccc23)CC1	active: 14.6 µM	–
CCOC(=O)c1nnc(-c2ccccc2)[nH]c1=O	inactive	–
Cc1cccc(Oc2nc(-c3ccccc3)cc(C)c2S(C)(=O)=O)c1C	inconclusive [inhibitor, single point]	–
CN(C(=O)c1cccc(NC(=O)Cc2cccc(NC(=O)C3CCN(C(=O)CCc4ccccc4)CC3)c2)c1)C1CC1	active: 23.1 µM	–
CC1ON=C(c2cccc3ccccc23)N(C)C1=O (centres undefined)	inactive	–
CCc1ccc(C(=O)c2cn(CC(=O)Nc3ccc4c(c3)OCO4)c3ccc(CC)cc3c2=O)cc1	inconclusive [inhibitor, single point]	–
CCCN1CCN(C(=O)c2ccc(S(=O)(=O)N(C)c3ccccc3OC)cc2)CC1	inactive	–
CCOC(=O)c1oc2ccccc2c1CN1CC(C)OC(C)C1 (centres undefined)	inactive	–
COc1ccc(-c2nn3c(-c4ccc(F)cc4)nnc3s2)cc1	inconclusive [inhibitor, partial curve, poor fit]	–
CCCCNC(=O)N(O)C1N(/N=C/c2ccccc2OC)C(=S)SC1(C)C (centres undefined)	inactive	–
COc1ccc(N=C2SCC(=O)N2CCc2ccc(OC)c(OC)c2)cc1	active: 25.9 µM	–
Cc1ccc(NC(=O)C(Cc2c[nH]c3ccccc23)NC(=O)OC(C)(C)C)c(C)c1 (centres undefined)	inconclusive [inhibitor, single point]	–
CN(CCC1CCOCC1)C(=O)C1CCC(=O)N(CCc2ccccc2)C1 (centres undefined)	inactive	–
O=C(Cc1coc2ccc3ccccc3c12)NCc1ccccc1	inconclusive [inhibitor, single point]	–
COc1ccc(S(=O)(=O)N(C)C[C@H]2Oc3ccc(NC(=O)Cc4ccccc4)cc3C(=O)N([C@H](C)CO)C[C@@H]2C)cc1	inconclusive [inhibitor, single point]	–
O=S1(=O)NC(CC2=CCCCC2)C2CCCCC2O1 (centres undefined)	inactive	–
CC(=O)N1CCCc2cc(S(=O)(=O)N3CCCC(C(=O)N4CCN(c5cccc(Cl)c5)CC4)C3)ccc21 (centres undefined)	active: 2.59 µM and active: 8.2 µM	–
Cc1cccc(C(=O)NCC(=O)NCC(c2ccco2)N2CCCCC2)c1 (centres undefined)	inactive	–
CN(C)c1ccc(P(=O)(OCc2ccccc2)C(O)c2ccc(Cl)cc2)cc1 (centres undefined)	inconclusive [inhibitor, partial curve]	–
Cc1ccc(NC(=O)c2ccc3nsnc3c2)c(C)c1	inconclusive [inhibitor, single point]	–
